Measured values as given in the supplement of paper PMC9588766.
Structures can show the parent of a compound that is named as a salt. Over roughly 1,900 compounds, “cell viability of compound + 1 nM pemigatinib relative to pemigatinib-only (DMSO) wells” has its median near 0.95; the lowest 2% begin near 0.22. The list shows a part of the results.

These compounds were tested on PDC-DUC18828 (assay: cell viability of compound + 1 nM pemigatinib relative to pemigatinib-only (DMSO) wells (fraction); PDC-DUC18828 is a patient-derived cholangiocarcinoma cell line; higher = less growth inhibition). Details: first compound 1 µM; pemigatinib concentration 1 nM; 72 h.
Method: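 Selleck Bioactive library screen in the patient-derived FGFR2 fusion-positive ICC cell line PDC-DUC18828 (500 cells/well). Each compound was tested at 1 uM with 1 nM pemigatinib, in triplicate, for 72 h. Viability was read by CellTiter-Glo and normalised to plate DMSO controls. Value is the paper's averaged normalised viability.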

| SMILES | cell viability |
| --- | --- |
| CO[C@H]1/C=C/O[C@@]2(C)Oc3c(C)c(O)c4c(O)c(c5c(nc6cc(C)ccn65)c4c3C2=O)NC(=O)/C(C)=C\C=C\[C@H](C)[C@H](O)[C@@H](C)[C@@H](O)[C@@H](C)[C@H](OC(C)=O)[C@@H]1C [Rifaximin] + CCN1C(=O)N(c2c(F)c(OC)cc(OC)c2F)Cc2cnc3[nH]c(CN4CCOCC4)cc3c21 [pemigatinib] | 0.914 |
| O=C(Cc1ccccc1)Nc1nnc(CCSCCc2nnc(NC(=O)Cc3ccccc3)s2)s1 + CCN1C(=O)N(c2c(F)c(OC)cc(OC)c2F)Cc2cnc3[nH]c(CN4CCOCC4)cc3c21 [pemigatinib] | 0.902 |
| COc1cc(-c2ncn(/C=C\C(=O)OC(C)C)n2)cc(C(F)(F)F)c1 + CCN1C(=O)N(c2c(F)c(OC)cc(OC)c2F)Cc2cnc3[nH]c(CN4CCOCC4)cc3c21 [pemigatinib] | 0.417 |
| COc1ccc(-c2nc(N3CCOCC3)c3sc(CN(C)c4ncc(C(=O)NO)cn4)cc3n2)cn1 + CCN1C(=O)N(c2c(F)c(OC)cc(OC)c2F)Cc2cnc3[nH]c(CN4CCOCC4)cc3c21 [pemigatinib] | 0.0302 |
| COc1ccc(Cl)c(Nc2nc3ccccc3nc2NS(=O)(=O)c2cccc(NC(=O)C(C)(C)N)c2)c1 [Pilaralisib (XL147)] + CCN1C(=O)N(c2c(F)c(OC)cc(OC)c2F)Cc2cnc3[nH]c(CN4CCOCC4)cc3c21 [pemigatinib] | 0.851 |
| CCCNC(=O)NS(=O)(=O)c1ccc(Cl)cc1 [Chlorpropamide] + CCN1C(=O)N(c2c(F)c(OC)cc(OC)c2F)Cc2cnc3[nH]c(CN4CCOCC4)cc3c21 [pemigatinib] | 1.04 |
| Cc1cnc(Nc2ccc(OCCN3CCCC3)cc2)nc1Nc1cccc(S(=O)(=O)NC(C)(C)C)c1 + CCN1C(=O)N(c2c(F)c(OC)cc(OC)c2F)Cc2cnc3[nH]c(CN4CCOCC4)cc3c21 [pemigatinib] | 0.843 |
| Cn1ncnc1[C@H]1c2n[nH]c(=O)c3cc(F)cc(c23)N[C@@H]1c1ccc(F)cc1 + CCN1C(=O)N(c2c(F)c(OC)cc(OC)c2F)Cc2cnc3[nH]c(CN4CCOCC4)cc3c21 [pemigatinib] | 0.596 |
| O=C1NCC2(CCN(CCc3ccccc3)CC2)O1 [Fenspiride HCl] + CCN1C(=O)N(c2c(F)c(OC)cc(OC)c2F)Cc2cnc3[nH]c(CN4CCOCC4)cc3c21 [pemigatinib] | 0.992 |
| Clc1ccc2c(c1)CCc1cccnc1C2=C1CCNCC1 [Desloratadine] + CCN1C(=O)N(c2c(F)c(OC)cc(OC)c2F)Cc2cnc3[nH]c(CN4CCOCC4)cc3c21 [pemigatinib] | 0.973 |
